Data as given in the supplement of paper PMC8728848.
The other results are listed elsewhere or left out.

Tests used:
Experiment in all cases: glycan array binding signal (z-score within array); higher = stronger binding
Conditions in all cases: glycan notation: IUPAC condensed, linker removed
[1] = biological target: GalNAc(b1-3)GalNAc
In short: (§1)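 The binding signal is a Z-score computed within each array. Data were drawn from 3228 arrays in the Consortium for Functional Glycomics database, restricted to those with a known protein sequence. Scores were averaged over arrays of the same protein sequence at different concentrations or buffers, and over linkers, and negative values can be taken as non-binding.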

[2] = biological target: GalNAc(b1-4)GlcNAc
In short: as §1

[3] = biological target: Glc(a1-4)Glc
In short: as §1

[4] = biological target: Glc(a1-6)Glc(a1-6)Glc
In short: as §1

[5] = biological target: Glc(b1-4)Glc
In short: as §1

[6] = biological target: Glc(b1-6)Glc
In short: as §1

[7] = biological target: GlcA(b1-3)Gal
In short: as §1

[8] = biological target: GlcA(b1-3)GlcNAc
In short: as §1

[9] = biological target: GlcA(b1-6)Gal
In short: as §1

[10] = biological target: GlcNAc(a1-3)Gal(b1-4)GlcNAc
In short: as §1

[11] = biological target: GlcNAc(a1-6)Gal(b1-4)GlcNAc
In short: as §1

[12] = biological target: GlcNAc(b1-2)Gal(b1-3)GalNAc
In short: as §1

[13] = biological target: GlcNAc(b1-2)Man(a1-3)[GlcNAc(b1-2)Man(a1-6)]Man(b1-4)GlcNAc(b1-4)GlcNAc
In short: as §1

[14] = biological target: GlcNAc(b1-3)Gal
In short: as §1

[15] = biological target: GlcNAc(b1-3)Gal(b1-3)GalNAc
In short: as §1

[16] = biological target: GlcNAc(b1-3)Gal(b1-4)Glc
In short: as §1

[17] = biological target: GlcNAc(b1-3)Gal(b1-4)GlcNAc
In short: as §1

[18] = biological target: GlcNAc(b1-3)Gal(b1-4)GlcNAc(b1-3)Gal(b1-4)GlcNAc
In short: as §1

[19] = biological target: GlcNAc(b1-3)GalNAc
In short: as §1

[20] = biological target: GlcNAc(b1-3)Man
In short: as §1

[21] = biological target: GlcNAc(b1-3)[GlcNAc(b1-4)][GlcNAc(b1-6)]GlcNAc
In short: as §1

[22] = biological target: GlcNAc(b1-3)[GlcNAc(b1-6)]Gal(b1-4)GlcNAc
In short: as §1

[23] = biological target: GlcNAc(b1-3)[GlcNAc(b1-6)]GalNAc
In short: as §1

[24] = biological target: GlcNAc(b1-4)Gal(b1-4)GlcNAc
In short: as §1

[25] = biological target: GlcNAc(b1-4)GlcNAc
In short: as §1

[26] = biological target: GlcNAc(b1-4)GlcNAc(b1-4)GlcNAc
In short: as §1

[27] = biological target: GlcNAc(b1-4)GlcNAc(b1-4)GlcNAc(b1-4)GlcNAc(b1-4)GlcNAc
In short: as §1

[28] = biological target: GlcNAc(b1-4)GlcNAc(b1-4)GlcNAc(b1-4)GlcNAc(b1-4)GlcNAc(b1-4)GlcNAc
In short: as §1

[29] = biological target: GlcNAc(b1-4)[GlcNAc(b1-6)]GalNAc
In short: as §1

[30] = biological target: GlcNAc(b1-6)Gal(b1-4)GlcNAc
In short: as §1

[31] = biological target: GlcNAc(b1-6)GalNAc
In short: as §1

[32] = biological target: GlcNAc3Prop(b1-4)GlcNAc
In short: as §1

[33] = biological target: Kdn(a2-3)Gal(b1-3)GlcNAc
In short: as §1

[34] = biological target: Kdn(a2-3)Gal(b1-4)GlcNAc
In short: as §1

[35] = biological target: Man(a1-2)Man(a1-2)Man(a1-3)Man
In short: as §1

[36] = biological target: Man(a1-2)Man(a1-2)Man(a1-6)[Man(a1-3)]Man
In short: as §1

[37] = biological target: Man(a1-2)Man(a1-3)Man
In short: as §1

[38] = biological target: Man(a1-2)Man(a1-3)[Man(a1-2)Man(a1-6)]Man
In short: as §1

[39] = biological target: Man(a1-2)Man(a1-3)[Man(a1-2)Man(a1-6)]Man(a1-6)[Man(a1-2)Man(a1-2)Man(a1-3)]Man
In short: as §1

[40] = biological target: Man(a1-2)Man(a1-3)[Man(a1-2)Man(a1-6)]Man(a1-6)[Man(a1-2)Man(a1-2)Man(a1-3)]Man(b1-4)GlcNAc(b1-4)GlcNAc
In short: as §1

[41] = biological target: Man(a1-2)Man(a1-3)[Man(a1-6)]Man(a1-6)[Man(a1-2)Man(a1-3)]Man(b1-4)GlcNAc(b1-4)GlcNAc
In short: as §1

[42] = biological target: Man(a1-2)Man(a1-6)[Man(a1-3)]Man(a1-6)[Man(a1-2)Man(a1-2)Man(a1-3)]Man
In short: as §1

[43] = biological target: Man(a1-2)Man(a1-6)[Man(a1-3)]Man(a1-6)[Man(a1-2)Man(a1-2)Man(a1-3)]Man(b1-4)GlcNAc(b1-4)GlcNAc
In short: as §1

[44] = biological target: Man(a1-3)[Man(a1-6)]Man
In short: as §1

[45] = biological target: Man(a1-3)[Man(a1-6)]Man(a1-6)[Man(a1-2)Man(a1-3)]Man(b1-4)GlcNAc(b1-4)GlcNAc
In short: as §1

B1: Regenerating Gene I (Homo sapiens), P05451 (protein)
chain: MAQTSSYFMLISCLMFLSQSQGQEAQTELPQARISCPEGTNAYRSYCYYFNEDRETWVDADLYCQNMNSGNLVSVLTQAEGAFVASLIKESGTDDFNVWIGLHDPKKNRRWHWSSGSLVSYKSWGIGAPSSVNPGYCVSLTSSTGFQKWKDVPCEDKFSFVCKFKN
[1]
  glycan array binding signal (z-score): -0.187
[2]
  glycan array binding signal (z-score): -0.128
[3]
  glycan array binding signal (z-score): -0.269
[4]
  glycan array binding signal (z-score): -0.118
[5]
  glycan array binding signal (z-score): 1.09
[6]
  glycan array binding signal (z-score): -0.473
[7]
  glycan array binding signal (z-score): -0.114
[8]
  glycan array binding signal (z-score): 0.836
[9]
  glycan array binding signal (z-score): 0.056
[10]
  glycan array binding signal (z-score): 0.944
[11]
  glycan array binding signal (z-score): -0.008
[12]
  glycan array binding signal (z-score): -0.206
[13]
  glycan array binding signal (z-score): -0.251
[14]
  glycan array binding signal (z-score): -0.215
[15]
  glycan array binding signal (z-score): 1.62
[16]
  glycan array binding signal (z-score): 1.55
[17]
  glycan array binding signal (z-score): -0.357
[18]
  glycan array binding signal (z-score): -0.517
[19]
  glycan array binding signal (z-score): -0.452
[20]
  glycan array binding signal (z-score): -0.525
[21]
  glycan array binding signal (z-score): 0.255
[22]
  glycan array binding signal (z-score): -0.377
[23]
  glycan array binding signal (z-score): -0.004
[24]
  glycan array binding signal (z-score): 2.18
[25]
  glycan array binding signal (z-score): -0.503
[26]
  glycan array binding signal (z-score): -0.188
[27]
  glycan array binding signal (z-score): -0.257
[28]
  glycan array binding signal (z-score): -0.396
[29]
  glycan array binding signal (z-score): 1.91
[30]
  glycan array binding signal (z-score): -0.198
[31]
  glycan array binding signal (z-score): 0.245
[32]
  glycan array binding signal (z-score): -0.533
[33]
  glycan array binding signal (z-score): -0.128
[34]
  glycan array binding signal (z-score): -0.443
[35]
  glycan array binding signal (z-score): -0.051
[36]
  glycan array binding signal (z-score): -0.34
[37]
  glycan array binding signal (z-score): 0.403
[38]
  glycan array binding signal (z-score): -0.267
[39]
  glycan array binding signal (z-score): 0.044
[40]
  glycan array binding signal (z-score): -0.271
[41]
  glycan array binding signal (z-score): 0.057
[42]
  glycan array binding signal (z-score): 0.234
[43]
  glycan array binding signal (z-score): -0.475
[44]
  glycan array binding signal (z-score): 7.74
[45]
  glycan array binding signal (z-score): -0.594
